B1: PD1-IL7-VAR3 (V15A) (other)
light: DIVMTQSPDSLAVSLGERATINCKASESVDTSDNSFIHWYQQKPGQSPKLLIYRSSTLESGVPDRFSGSGSGTDFTLTISSLQAEDVAVYYCQQNYDVPWTFGQGTKVEIKRTVAAPSVFIFPPSDEQLKSGTASVVCLLNNFYPREAKVQWKVDNALQSGNSQESVTEQDSKDSTYSLSSTLTLSKADYEKHKVYACEVTHQGLSSPVTKSFNRGEC
heavy 1: EVQLLESGGGLVQPGGSLRLSCAASGFSFSSYTMSWVRQAPGKGLEWVATISGGGRDIYYPDSVKGRFTISRDNSKNTLYLQMNSLRAEDTAVYYCVLLTGRVYFALDSWGQGTLVTVSSASTKGPSVFPLAPSSKSTSGGTAALGCLVKDYFPEPVTVSWNSGALTSGVHTFPAVLQSSGLYSLSSVVTVPSSSLGTQTYICNVNHKPSNTKVDKKVEPKSCDKTHTCPPCPAPEAAGGPSVFLFPPKPKDTLMISRTPEVTCVVVDVSHEDPEVKFNWYVDGVEVHNAKTKPREEQYNSTYRVVSVLTVLHQDWLNGKEYKCKVSNKALGAPIEKTISKAKGQPREPQVCTLPPSRDELTKNQVSLSCAVKGFYPSDIAVEWESNGQPENNYKTTPPVLDSDGSFFLVSKLTVDKSRWQQGNVFSCSVMHEALHNHYTQKSLSLSPGK
heavy 2: EVQLLESGGGLVQPGGSLRLSCAASGFSFSSYTMSWVRQAPGKGLEWVATISGGGRDIYYPDSVKGRFTISRDNSKNTLYLQMNSLRAEDTAVYYCVLLTGRVYFALDSWGQGTLVTVSSASTKGPSVFPLAPSSKSTSGGTAALGCLVKDYFPEPVTVSWNSGALTSGVHTFPAVLQSSGLYSLSSVVTVPSSSLGTQTYICNVNHKPSNTKVDKKV[human IgG1 Fc with changes left out]GGGGSGGGGSGGGGSDCDIEGKDGKQYESALMVSIDQLLDSMKEIGSNCLNNEFNFFKRHICDANKEGMFLFRAARKLRQFLKMNSTGDFDLHLLKVSEGTTILLNCTGQVKGRKPAALGEAQPTKSLEENKSLKEQKKLNDLCFLKRLLQEIKTCWNKILMGTKEH
notes: Format as m1; IL-7 with V15A; also called PD1-IL7 -V15A (Var3); PD1-IL7-VAR3 (VISA)
B2: PD1-IL7-VAR6 (V18K) (other)
light: B1 light
heavy 1: B1 heavy 1
heavy 2: EVQLLESGGGLVQPGGSLRLSCAASGFSFSSYTMSWVRQAPGKGLEWVATISGGGRDIYYPDSVKGRFTISRDNSKNTLYLQMNSLRAEDTAVYYCVLLTGRVYFALDSWGQGTLVTVSSASTKGPSVFPLAPSSKSTSGGTAALGCLVKDYFPEPVTVSWNSGALTSGVHTFPAVLQSSGLYSLSSVVTVPSSSLGTQTYICNVNHKPSNTKVDKKV[human IgG1 Fc with changes left out]GGGGSGGGGSGGGGSDCDIEGKDGKQYESVLMKSIDQLLDSMKEIGSNCLNNEFNFFKRHICDANKEGMFLFRAARKLRQFLKMNSTGDFDLHLLKVSEGTTILLNCTGQVKGRKPAALGEAQPTKSLEENKSLKEQKKLNDLCFLKRLLQEIKTCWNKILMGTKEH
notes: Format as m1; IL-7 with V18K; also called PD1-IL7 -V18K (Var6)
B3: PD1-IL7-VAR22 (I88K) (other)
light: B1 light
heavy 1: B1 heavy 1
heavy 2: EVQLLESGGGLVQPGGSLRLSCAASGFSFSSYTMSWVRQAPGKGLEWVATISGGGRDIYYPDSVKGRFTISRDNSKNTLYLQMNSLRAEDTAVYYCVLLTGRVYFALDSWGQGTLVTVSSASTKGPSVFPLAPSSKSTSGGTAALGCLVKDYFPEPVTVSWNSGALTSGVHTFPAVLQSSGLYSLSSVVTVPSSSLGTQTYICNVNHKPSNTKVDKKV[human IgG1 Fc with changes left out]GGGGSGGGGSGGGGSDCDIEGKDGKQYESVLMVSIDQLLDSMKEIGSNCLNNEFNFFKRHICDANKEGMFLFRAARKLRQFLKMNSTGDFDLHLLKVSEGTTKLLNCTGQVKGRKPAALGEAQPTKSLEENKSLKEQKKLNDLCFLKRLLQEIKTCWNKILMGTKEH
notes: Format as m1; IL-7 with I88K; also called PD1-IL7 - I88K(Var22)
B4: PD1-IL7-VAR15 (L77A) (other)
light: B1 light
heavy 1: B1 heavy 1
heavy 2: EVQLLESGGGLVQPGGSLRLSCAASGFSFSSYTMSWVRQAPGKGLEWVATISGGGRDIYYPDSVKGRFTISRDNSKNTLYLQMNSLRAEDTAVYYCVLLTGRVYFALDSWGQGTLVTVSSASTKGPSVFPLAPSSKSTSGGTAALGCLVKDYFPEPVTVSWNSGALTSGVHTFPAVLQSSGLYSLSSVVTVPSSSLGTQTYICNVNHKPSNTKVDKKV[human IgG1 Fc with changes left out]GGGGSGGGGSGGGGSDCDIEGKDGKQYESVLMVSIDQLLDSMKEIGSNCLNNEFNFFKRHICDANKEGMFLFRAARKLRQFLKMNSTGDFDAHLLKVSEGTTILLNCTGQVKGRKPAALGEAQPTKSLEENKSLKEQKKLNDLCFLKRLLQEIKTCWNKILMGTKEH
notes: Format as m1; IL-7 with L77A; also called PD1-IL7 -L77A (Var15)
B5: PD1-IL7-VAR16 (L77K) (other)
light: B1 light
heavy 1: B1 heavy 1
heavy 2: EVQLLESGGGLVQPGGSLRLSCAASGFSFSSYTMSWVRQAPGKGLEWVATISGGGRDIYYPDSVKGRFTISRDNSKNTLYLQMNSLRAEDTAVYYCVLLTGRVYFALDSWGQGTLVTVSSASTKGPSVFPLAPSSKSTSGGTAALGCLVKDYFPEPVTVSWNSGALTSGVHTFPAVLQSSGLYSLSSVVTVPSSSLGTQTYICNVNHKPSNTKVDKKV[human IgG1 Fc with changes left out]GGGGSGGGGSGGGGSDCDIEGKDGKQYESVLMVSIDQLLDSMKEIGSNCLNNEFNFFKRHICDANKEGMFLFRAARKLRQFLKMNSTGDFDKHLLKVSEGTTILLNCTGQVKGRKPAALGEAQPTKSLEENKSLKEQKKLNDLCFLKRLLQEIKTCWNKILMGTKEH
notes: Format as m1; IL-7 with L77K; also called PD1-IL7 -L77K (Var16)
B6: PD1-IL7-VAR5 (V18A) (other)
light: B1 light
heavy 1: B1 heavy 1
heavy 2: EVQLLESGGGLVQPGGSLRLSCAASGFSFSSYTMSWVRQAPGKGLEWVATISGGGRDIYYPDSVKGRFTISRDNSKNTLYLQMNSLRAEDTAVYYCVLLTGRVYFALDSWGQGTLVTVSSASTKGPSVFPLAPSSKSTSGGTAALGCLVKDYFPEPVTVSWNSGALTSGVHTFPAVLQSSGLYSLSSVVTVPSSSLGTQTYICNVNHKPSNTKVDKKV[human IgG1 Fc with changes left out]GGGGSGGGGSGGGGSDCDIEGKDGKQYESVLMASIDQLLDSMKEIGSNCLNNEFNFFKRHICDANKEGMFLFRAARKLRQFLKMNSTGDFDLHLLKVSEGTTILLNCTGQVKGRKPAALGEAQPTKSLEENKSLKEQKKLNDLCFLKRLLQEIKTCWNKILMGTKEH
notes: Format as m1; IL-7 with V18A; also called PD1-IL7 -V18A (Var5)
B7: PD1-IL7-VAR27 (N143K) (other)
light: B1 light
heavy 1: B1 heavy 1
heavy 2: EVQLLESGGGLVQPGGSLRLSCAASGFSFSSYTMSWVRQAPGKGLEWVATISGGGRDIYYPDSVKGRFTISRDNSKNTLYLQMNSLRAEDTAVYYCVLLTGRVYFALDSWGQGTLVTVSSASTKGPSVFPLAPSSKSTSGGTAALGCLVKDYFPEPVTVSWNSGALTSGVHTFPAVLQSSGLYSLSSVVTVPSSSLGTQTYICNVNHKPSNTKVDKKV[human IgG1 Fc with changes left out]GGGGSGGGGSGGGGSDCDIEGKDGKQYESVLMVSIDQLLDSMKEIGSNCLNNEFNFFKRHICDANKEGMFLFRAARKLRQFLKMNSTGDFDLHLLKVSEGTTILLNCTGQVKGRKPAALGEAQPTKSLEENKSLKEQKKLNDLCFLKRLLQEIKTCWKKILMGTKEH
notes: Format as m1; IL-7 with N143K; also called PD1-IL7 -N143K (Var27)
B8: PD1-IL7-VAR28 (M147A) (other)
light: B1 light
heavy 1: B1 heavy 1
heavy 2: EVQLLESGGGLVQPGGSLRLSCAASGFSFSSYTMSWVRQAPGKGLEWVATISGGGRDIYYPDSVKGRFTISRDNSKNTLYLQMNSLRAEDTAVYYCVLLTGRVYFALDSWGQGTLVTVSSASTKGPSVFPLAPSSKSTSGGTAALGCLVKDYFPEPVTVSWNSGALTSGVHTFPAVLQSSGLYSLSSVVTVPSSSLGTQTYICNVNHKPSNTKVDKKV[human IgG1 Fc with changes left out]GGGGSGGGGSGGGGSDCDIEGKDGKQYESVLMVSIDQLLDSMKEIGSNCLNNEFNFFKRHICDANKEGMFLFRAARKLRQFLKMNSTGDFDLHLLKVSEGTTILLNCTGQVKGRKPAALGEAQPTKSLEENKSLKEQKKLNDLCFLKRLLQEIKTCWNKILAGTKEH
notes: Format as m1; IL-7 with M147A
B9: PD1-IL7-VAR26 (K139E) (other)
light: B1 light
heavy 1: B1 heavy 1
heavy 2: EVQLLESGGGLVQPGGSLRLSCAASGFSFSSYTMSWVRQAPGKGLEWVATISGGGRDIYYPDSVKGRFTISRDNSKNTLYLQMNSLRAEDTAVYYCVLLTGRVYFALDSWGQGTLVTVSSASTKGPSVFPLAPSSKSTSGGTAALGCLVKDYFPEPVTVSWNSGALTSGVHTFPAVLQSSGLYSLSSVVTVPSSSLGTQTYICNVNHKPSNTKVDKKV[human IgG1 Fc with changes left out]GGGGSGGGGSGGGGSDCDIEGKDGKQYESVLMVSIDQLLDSMKEIGSNCLNNEFNFFKRHICDANKEGMFLFRAARKLRQFLKMNSTGDFDLHLLKVSEGTTILLNCTGQVKGRKPAALGEAQPTKSLEENKSLKEQKKLNDLCFLKRLLQEIETCWNKILMGTKEH
notes: Format as m1; IL-7 with K139E

target: human PD-1 on T cells (human, UniProt Q15116 25-288); assay: cell-based or functional assay
Chain of UniProt Q15116 (Q15116 25-288 limits assumed): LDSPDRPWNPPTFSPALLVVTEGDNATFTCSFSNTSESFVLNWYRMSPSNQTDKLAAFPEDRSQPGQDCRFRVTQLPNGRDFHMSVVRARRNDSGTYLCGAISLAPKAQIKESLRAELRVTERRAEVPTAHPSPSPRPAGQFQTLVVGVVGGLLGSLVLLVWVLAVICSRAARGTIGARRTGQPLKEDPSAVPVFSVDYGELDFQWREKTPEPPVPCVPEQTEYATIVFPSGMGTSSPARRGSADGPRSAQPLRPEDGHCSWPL

Point of comparison: B2, “fold increase in EC50, EC50 [with PD1bl]/EC50 [PD1+]” value 8.3 fold. Against it:
- B1 — higher, 10.5 fold
- B3 — lower, 1.7 fold
- B4 — lower, 4.6 fold
- B5 — lower, 5 fold
- B6 — lower, 5.5 fold
- B7 — lower, 4.7 fold

target: T1, IL-7Rα/IL-2Rγ on human T cells (human, UniProt P16871 21-459; P31785 23-369); assay: cell-based or functional assay
T1 sequence (looked up) 1: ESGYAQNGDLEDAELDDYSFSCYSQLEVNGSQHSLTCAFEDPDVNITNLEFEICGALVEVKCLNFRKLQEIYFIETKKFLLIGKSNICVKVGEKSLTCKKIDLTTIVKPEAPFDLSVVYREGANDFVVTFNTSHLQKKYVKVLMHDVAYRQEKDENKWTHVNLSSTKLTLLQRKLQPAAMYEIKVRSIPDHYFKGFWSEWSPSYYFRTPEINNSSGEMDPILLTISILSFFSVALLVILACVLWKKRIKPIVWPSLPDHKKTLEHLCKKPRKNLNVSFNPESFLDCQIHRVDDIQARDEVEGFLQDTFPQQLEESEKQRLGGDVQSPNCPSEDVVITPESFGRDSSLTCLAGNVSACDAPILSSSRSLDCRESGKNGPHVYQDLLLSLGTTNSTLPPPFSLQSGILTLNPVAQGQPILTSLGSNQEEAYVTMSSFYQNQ
T1 sequence (looked up) 2: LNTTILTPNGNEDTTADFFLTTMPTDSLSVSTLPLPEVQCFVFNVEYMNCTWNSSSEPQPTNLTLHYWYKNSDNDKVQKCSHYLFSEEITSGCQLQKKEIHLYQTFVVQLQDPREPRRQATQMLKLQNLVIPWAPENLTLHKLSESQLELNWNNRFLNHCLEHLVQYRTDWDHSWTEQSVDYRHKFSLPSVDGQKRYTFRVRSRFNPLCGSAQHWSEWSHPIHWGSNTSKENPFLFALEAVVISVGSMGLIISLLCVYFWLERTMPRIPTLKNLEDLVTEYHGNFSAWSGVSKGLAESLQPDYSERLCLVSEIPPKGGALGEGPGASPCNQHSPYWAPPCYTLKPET

Point of comparison: B3, “fold increase in EC50, EC50 [PD1+]/EC50 PD1-IL7wt [PD1+]” value 0.6 fold. Against it:
- B1 — higher, 1.7 fold
- B2 — higher, 1.9 fold
- B4 — higher, 1.2 fold
- B5 — higher, 1.5 fold
- B6 — higher, 1.1 fold
- B7 — higher, 7.8 fold

target: T2, Human IL7Ra-IL2Rγ-Fc heterodimer (human, biotin on the avi tag); assay: SPR, captured from supernatant, 800 nM receptor-Fc single injection
T2 construct: Extracellular domains of IL-7Ralpha and IL-2Rgamma fused to Fc knob and Fc hole; also called hu IL7Ra-IL2Rγ-Fc avi biotin; human IL7Ra-IL2Rg-Fc biotin
Method: Surface Plasmon Resonacne (SPR) experiments were performed on a Biacore T200 with HBS-EP+ as running buffer (0.01 M HEPES pH 7.4, 0.15 M NaCl, 0.005% Surfactant P20 (BR-1006-69, GE Healthcare)). Fc specific antibodies (Roche internal) were directly immobilized by amine coupling on a CM5 chip (GE Healthcare). The PDI-IL7 constructs were captured from supernatants for 120 s at 100 nM. […] Only the extracellular domains were fused to Fc domains, produced in HEK Expi Cells and purified by two-step column chromatography including affinity purification via Protein A followed by size-exclusion chromatography. A single injection of 800 nM hu IL 7Ra-IL2Rγ-Fc heterodimer was passed over the ligand at 30 µ1/min for 240 sec to record the association phase. The dissociation phase was monitored for 360 s and triggered by switching from the sample solution to HBS-EP+. The chip surface was regenerated after every cycle using one injection of 10 mM glycine pH 2 for 60 sec. Bulk refractive index differences were corrected for by subtracting the response obtained on the reference flow cell 1. The response units after the capture step and at the end of the association phase were recorded and a ratio of binding to capture was calculated. The single binding curves were fitted in the dissociation phase to obtain a koff for ease of comparison (Biacore Evaluation software, GE Healthcare).
The ratio of binding to capture was calculated and the dissociation phase was fitted to a single curve to support the characterization of the off-rate.

Point of comparison: B5, koff 0.00119 s⁻¹. Against it:
- B1 — 1.5-fold higher, 0.00183 s⁻¹
- B2 — within 1.5-fold, 0.00115 s⁻¹
- B3 — within 1.5-fold, 0.00111 s⁻¹
- B8 — within 1.5-fold, 0.000869 s⁻¹
- B9 — within 1.5-fold, 0.000947 s⁻¹
- B4 — within 1.5-fold, 0.000945 s⁻¹
- B6 — within 1.5-fold, 0.00113 s⁻¹
- B7 — 12-fold higher, 0.014 s⁻¹

— US20230192795A1 (Hoffmann-La Roche, published 2023)
